Data published in patent USRE39887E1, “Dehydrodidemnin B” (Pharma Mar, S.A., priority 1989, dated 2007).
Starred links: 1 amine or outer side, 2 acyl side, 3 side chain; linkers in the order of their positions; H or OH if unused. Positions of bridges follow the written chain, without caps; N, C: chain ends. Non-standard residues stand in square brackets, D forms with d. Residues, ends and D or L forms follow the SMILES beside them. *: point of attachment. X1 = CC[C@H](C)[C@@H](N[*:1])[C@@H](O)CC(=O)O[C@H](C(=O)[C@H](C)C(=O)[*:2])C(C)C; NMeY = CN[C@@H](Cc1ccc(O)cc1)C(=O)O; dNMeL = CN[C@H](CC(C)C)C(=O)O; Pyruvoyl = CC(=O)C(=O)*

System: P-388 mouse leukemia cells
Assay: P-388 in vivo activity
Settings: QD 1-9, IP, significant activity T/C ≧ 125

SMILES: CC[C@H](C)[C@H]1NC(=O)[C@@H](NC(=O)[C@@H](CC(C)C)N(C)C(=O)[C@@H]2CCCN2C(=O)C(C)=O)[C@@H](C)OC(=O)[C@H](Cc2ccc(OC)cc2)N(C)C(=O)[C@@H]2CCCN2C(=O)[C@H](CC(C)C)NC(=O)[C@@H](C)C(=O)[C@H](C(C)C)OC(=O)C[C@@H]1O [DDB, dehydrodidemnin B] (Pyruvoyl-P[dNMeL]T[X1]LP[NMeY](Me); ester 3-C)
- P388 % T/C (80 μg/kg/injn): 195%
- P388 % T/C (160 μg/kg/injn): 210%
